Measurements published in patent publication US5770687A, “Comformationally constrained backbone cyclized somatostatin analogs” (Peptor Limited, priority 1996, dated 1998).
Read-outs that look alike come from different tables or passages of the source. For part of these data: Part of at least one peptide drawing is inferred or uncertain, most often the ends. For part of these data: At least one compound was matched to its structure with a doubt left. Peptide text beside a SMILES is read from it.

Legend:
insulin release [1] = experiment: Glucose induced insulin release in rats; assay type: in vivo, rat; details: Wister rats, 10 μg/kg subcutaneously, glucose 0.5 g/kg IV
insulin release [2] = details: manufacturer's data; cited from earlier work
SSTR-2 = experiment: Radioligand binding, inhibition of 125I-Tyr11-SRIF binding to cloned SSTR-2; details: Table 21; inhibition of iodinated SRIF-14 binding, CHO cells; tested at 10^-6, 10^-7, 10^-8 M
Protocol: (§1) The somatostatin analogs were tested for their potency in inhibition of the binding of ^125 I-Tyr^11 -SRIF (based on the method described by Raynor et. al., Molecular Pharmacology 43, 838-844, 1993) to membrane preparations expressing the transmembranal somatostatin receptors (SSTR-1,2,3,4 or 5). The receptor preparations used for these tests were either from the cloned receptors selectively and stably expressed in Chinese Hamster Ovary (CHO) cells or from cell lines naturally expressing the SSTRs. […] The binding reactions were filtered, the filters were washed and the bound radioactivity was counted in gamma counter. […] In order to validate positive signals of the binding tests, and to eliminate non-specific signals, samples of irrelevant peptides, such as GnRH, that were synthesized and handled using the same procedures, were tested in the same assays as negative control samples.

SSTR-3 = SSTR-3 (Homo sapiens, UniProt P32745); experiment: Radioligand binding, inhibition of 125I-Tyr11-SRIF binding to cloned SSTR-3
Protocol: as §1

rat SSTR-5 = target: T1, rat SSTR-5 (Rattus norvegicus, UniProt P30938); experiment: Radioligand binding, inhibition of 125I-Tyr11-SRIF binding to cloned rat SSTR-5; details: Table 21; inhibition of iodinated SRIF-14 binding, CHO cells; tested at 10^-6, 10^-7, 10^-8 M
T1 sequence (P30938 1-363): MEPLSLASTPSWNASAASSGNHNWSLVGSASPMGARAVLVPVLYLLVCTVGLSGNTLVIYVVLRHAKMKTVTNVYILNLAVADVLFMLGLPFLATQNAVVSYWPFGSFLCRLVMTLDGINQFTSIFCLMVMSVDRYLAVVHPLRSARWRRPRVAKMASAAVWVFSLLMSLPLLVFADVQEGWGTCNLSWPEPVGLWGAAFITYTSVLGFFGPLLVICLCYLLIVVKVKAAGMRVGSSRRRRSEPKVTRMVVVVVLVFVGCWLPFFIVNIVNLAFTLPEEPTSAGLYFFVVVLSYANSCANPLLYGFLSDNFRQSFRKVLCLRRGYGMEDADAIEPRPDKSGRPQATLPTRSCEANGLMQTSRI
Protocol: as §1

SSTR-1 = SSTR-1 (Homo sapiens, UniProt P30872); experiment: Radioligand binding, inhibition of 125I-Tyr11-SRIF binding to cloned SSTR-1
Protocol: as §1

SSTR-4 = SSTR-4 (Homo sapiens, UniProt P31391); experiment: Radioligand binding, inhibition of 125I-Tyr11-SRIF binding to cloned SSTR-4
Protocol: as §1

human SSTR-5 = human SSTR-5 (Homo sapiens, UniProt P35346); experiment: Radioligand binding, inhibition of 125I-Tyr11-SRIF binding to cloned human SSTR-5; details: Table 21; inhibition of iodinated SRIF-14 binding, CHO cells; tested at 10^-6, 10^-7, 10^-8 M
Protocol: as §1

[3] = Table 21, inhibition of iodinated SRIF-14 binding, CHO cells, tested at 10^-6, 10^-7, 10^-8 M, read-out: IC50 SSTR-3
[4] = Table 21, inhibition of iodinated SRIF-14 binding, CHO cells, tested at 10^-6, 10^-7, 10^-8 M, read-out: IC50 SSTR-1
[5] = Table 21, inhibition of iodinated SRIF-14 binding, CHO cells, tested at 10^-6, 10^-7, 10^-8 M, read-out: IC50 SSTR-4

Chain of SSTR-1 (P30872 whole entry, species assumed): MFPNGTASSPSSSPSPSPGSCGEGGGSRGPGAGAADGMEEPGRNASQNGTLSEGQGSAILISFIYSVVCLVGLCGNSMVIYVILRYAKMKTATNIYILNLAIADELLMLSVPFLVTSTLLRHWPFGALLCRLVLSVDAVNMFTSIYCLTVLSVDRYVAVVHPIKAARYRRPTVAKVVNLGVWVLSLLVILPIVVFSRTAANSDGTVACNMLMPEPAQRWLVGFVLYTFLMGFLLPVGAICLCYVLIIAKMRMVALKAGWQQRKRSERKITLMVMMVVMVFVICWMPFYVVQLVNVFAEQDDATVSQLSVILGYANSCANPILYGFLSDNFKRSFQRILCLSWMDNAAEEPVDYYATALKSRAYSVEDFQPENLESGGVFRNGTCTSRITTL
Chain of SSTR-3 (P32745 whole entry, species assumed): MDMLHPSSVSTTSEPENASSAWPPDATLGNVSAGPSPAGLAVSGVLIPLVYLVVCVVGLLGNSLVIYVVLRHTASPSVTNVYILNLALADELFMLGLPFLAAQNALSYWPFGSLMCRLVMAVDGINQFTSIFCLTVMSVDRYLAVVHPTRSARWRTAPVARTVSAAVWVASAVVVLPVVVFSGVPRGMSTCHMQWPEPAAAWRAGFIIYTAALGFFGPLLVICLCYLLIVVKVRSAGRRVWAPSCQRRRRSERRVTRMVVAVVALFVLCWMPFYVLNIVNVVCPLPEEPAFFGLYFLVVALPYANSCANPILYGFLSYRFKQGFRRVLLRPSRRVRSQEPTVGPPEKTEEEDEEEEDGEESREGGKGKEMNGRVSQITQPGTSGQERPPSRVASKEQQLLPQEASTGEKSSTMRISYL
Chain of SSTR-4 (P31391 whole entry, species assumed): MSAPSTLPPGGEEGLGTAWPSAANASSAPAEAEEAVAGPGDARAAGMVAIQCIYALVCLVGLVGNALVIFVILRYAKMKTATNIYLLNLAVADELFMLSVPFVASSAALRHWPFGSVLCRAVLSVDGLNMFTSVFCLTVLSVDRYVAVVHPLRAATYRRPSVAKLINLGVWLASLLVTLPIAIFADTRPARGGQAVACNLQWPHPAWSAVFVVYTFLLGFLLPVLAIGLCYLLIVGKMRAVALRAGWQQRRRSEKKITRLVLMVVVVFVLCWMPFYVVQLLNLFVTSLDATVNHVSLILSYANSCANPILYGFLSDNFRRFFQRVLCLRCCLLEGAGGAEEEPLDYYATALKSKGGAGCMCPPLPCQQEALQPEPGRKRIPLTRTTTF
Chain of human SSTR-5 (P35346 whole entry): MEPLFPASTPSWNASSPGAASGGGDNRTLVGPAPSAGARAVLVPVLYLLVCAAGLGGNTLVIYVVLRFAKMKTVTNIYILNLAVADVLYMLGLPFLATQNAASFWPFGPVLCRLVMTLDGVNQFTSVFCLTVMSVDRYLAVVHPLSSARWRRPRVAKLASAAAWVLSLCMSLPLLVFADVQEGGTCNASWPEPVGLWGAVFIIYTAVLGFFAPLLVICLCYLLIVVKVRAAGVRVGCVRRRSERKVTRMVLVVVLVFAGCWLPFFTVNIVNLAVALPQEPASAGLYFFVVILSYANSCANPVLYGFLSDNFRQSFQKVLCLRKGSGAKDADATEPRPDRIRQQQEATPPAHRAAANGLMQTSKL

C[C@@H](O)[C@@H]1NC(=O)[C@H](CCCCN)NC(=O)[C@@H](Cc2c[nH]c3ccccc23)NC(=O)[C@H](Cc2ccccc2)NC(=O)[C@@H](NC(=O)[C@H](N)Cc2ccccc2)CSSC[C@@H](C(=O)N[C@H](CO)[C@@H](C)O)NC1=O [Octreotide, DPhe^5 -cyclo(Cys^6 -Phe^7 -DTrp^5 -Lys^9 -Thr^10 -Cys^11)-Thr^12 -ol]
decrease of the insulin levels (insulin release [1]): not statistically significant | ED 50 for insulin release (insulin release [2]): 0.026 mg/kg

C[C@@H](O)[C@H](NC(=O)CN1CCCNC(=O)CN(C(=O)[C@H](N)Cc2ccccc2)CC(=O)N[C@@H](Cc2ccccc2)C(=O)N[C@H](Cc2c[nH]c3ccccc23)C(=O)N[C@@H](CCCCN)C(=O)N[C@@H]([C@@H](C)O)C1=O)C(N)=O [PTR 3004]
IC50 (SSTR-2): > 10000 nM

C[C@@H](O)[C@H](NC(=O)CN1CCCNC(=O)CCN(C(=O)[C@H](N)Cc2ccccc2)CC(=O)N[C@@H](Cc2ccccc2)C(=O)N[C@H](Cc2c[nH]c3ccccc23)C(=O)N[C@@H](CCCCN)C(=O)N[C@@H]([C@@H](C)O)C1=O)C(N)=O [PTR 3007] (HELM PEPTIDE1{[dF].[O=C(CN(CCC(=O)[*:3])[*:1])[*:2]].F.[dW].K.T.[O=C(CN(CCCN[*:3])[*:1])[*:2]].T.[am]}$PEPTIDE1,PEPTIDE1,2:R3-7:R3$$$V2.0)
IC50 (SSTR-2): > 10000 nM

C[C@@H](O)[C@H](NC(=O)CN1CCC(=O)NCCCN(C(=O)[C@H](N)Cc2ccccc2)CC(=O)N[C@@H](Cc2ccccc2)C(=O)N[C@H](Cc2c[nH]c3ccccc23)C(=O)N[C@@H](CCCCN)C(=O)N[C@@H]([C@@H](C)O)C1=O)C(N)=O [PTR 3010] (HELM PEPTIDE1{[dF].[O=C(CN(CCCN[*:3])[*:1])[*:2]].F.[dW].K.T.[O=C(CN(CCC(=O)[*:3])[*:1])[*:2]].T.[am]}$PEPTIDE1,PEPTIDE1,2:R3-7:R3$$$V2.0)
IC50 (SSTR-2): > 10000 nM

CC(=O)N1CCCNC(=O)CCN(CC(=O)N[C@@H](Cc2ccccc2)C(=O)N[C@H](C(N)=O)[C@@H](C)O)C(=O)[C@H](CCCCN)NC(=O)[C@@H](Cc2c[nH]c3ccccc23)NC(=O)[C@H](Cc2ccccc2)NC(=O)C1 [PTR 3013] (HELM PEPTIDE1{[ac].[O=C(CN(CCCN[*:3])[*:1])[*:2]].F.[dW].K.[O=C(CN(CCC(=O)[*:3])[*:1])[*:2]].F.T.[am]}$PEPTIDE1,PEPTIDE1,2:R3-6:R3$$$V2.0)
IC50 (SSTR-3; [3]): > 10000 nM | IC50 (rat SSTR-5): > 2000 nM

C[C@@H](O)[C@H](NC(=O)[C@H](Cc1ccccc1)NC(=O)CN1CCC(=O)NCCN(C(=O)[C@H](N)Cc2ccccc2)CC(=O)N[C@@H](Cc2ccccc2)C(=O)N[C@H](Cc2c[nH]c3ccccc23)C(=O)N[C@@H](CCCCN)C1=O)C(N)=O [PTR 3016] (HELM PEPTIDE1{[dF].[O=C(CN(CCN[*:3])[*:1])[*:2]].F.[dW].K.[O=C(CN(CCC(=O)[*:3])[*:1])[*:2]].F.T.[am]}$PEPTIDE1,PEPTIDE1,2:R3-6:R3$$$V2.0)
IC50 (SSTR-1; [4]): 2500 nM | IC50 (SSTR-3; [3]): > 2000 nM | IC50 (SSTR-4; [5]): > 2000 nM | IC50 (human SSTR-5): > 2000 nM | IC50 (rat SSTR-5): 1000 nM

C[C@@H](O)[C@H](NC(=O)[C@H](Cc1ccccc1)NC(=O)CN1CCNC(=O)CCN(C(=O)[C@H](N)Cc2ccccc2)CC(=O)N[C@@H](Cc2ccccc2)C(=O)N[C@H](Cc2c[nH]c3ccccc23)C(=O)N[C@@H](CCCCN)C1=O)C(N)=O [PTR 3019] (HELM PEPTIDE1{[dF].[O=C(CN(CCC(=O)[*:3])[*:1])[*:2]].F.[dW].K.[O=C(CN(CCN[*:3])[*:1])[*:2]].F.T.[am]}$PEPTIDE1,PEPTIDE1,2:R3-6:R3$$$V2.0)
IC50 (SSTR-3; [3]): > 10000 nM

CC(C)[C@@H]1NC(=O)[C@H](CCCCN)NC(=O)[C@@H](Cc2c[nH]c3ccccc23)NC(=O)[C@H](Cc2ccc(O)cc2)NC(=O)[C@H](Cc2ccccc2)NCCNC(=O)CCCN([C@@H](Cc2ccccc2)C(=O)N[C@H](C(N)=O)[C@@H](C)O)C1=O [PTR 3046, cyclo(PheN2^6 -Tyr^7 -DTrp^8 -Lys^9 -Val^10 -PheC3^11)-Thr^12 -NH2] (HELM PEPTIDE1{[O=C([C@H](Cc1ccccc1)NCCN[*:3])[*:2]].Y.[dW].K.V.[O=C([C@H](Cc1ccccc1)N(CCCC(=O)[*:3])[*:1])[*:2]].T.[am]}$PEPTIDE1,PEPTIDE1,1:R3-6:R3$$$V2.0)
IC50 (SSTR-1; [4]): 3000 nM | IC50 (SSTR-1; Table 22, PTR 3046, read-out: IC50 value SSTR 1): 3000 nM | IC50 (SSTR-3; [3]): 500 nM | IC50 (SSTR-3; text summary of Example 85 binding data, read-out: affinity to SSTR-3): > 1000 nM | IC50 (SSTR-4; [5]): 250 nM | IC50 (SSTR-4; text summary of Example 85 binding data, read-out: affinity to SSTR-4): > 1000 nM | IC50 (human SSTR-5): 22 nM | IC50 (rat SSTR-5): 30 nM
